From PubChem BioAssay AID686978 (National Center for Advancing Translational Sciences (NCATS), 2013)
The campaign covered roughly 420,000 compounds. About 64,000 (15%) were called active. This list was built around the results that the source calls inconclusive (neither active nor inactive); the mix of calls is not that of the screen. The call rests on the fitted dose curve; in most records, active means well fitted inhibition curve with a large enough effect; inconclusive means small, poorly fitted or top-dose-only effect; inactive means flat fitted curve, though single readings scatter. No potency is given beside an inconclusive call; the fits are too rough.

test: qHTS for Inhibitors of human tyrosyl-DNA phosphodiesterase 1 (TDP1): qHTS in cells in absence of CPT; details: DT40 Tdp1-/- hTDP1 cells, no CPT, ATP luminescence, 48 h; activity change, negative = growth inhibition: at 46.2 µM (top of the series) unless noted; further: nearly all actives have a fitted effect of over 55% in size
In short: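 Chicken DT40 Tdp1-/- cells stably complemented with human TDP1 were seeded at 400 cells/well with DMSO in place of 20 nM camptothecin. After compound pinning, cells grew at least 48 hr at 37 °C; viability read by CellTiter-Glo luminescence.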
On the % scale 0 is the no-effect control and ±100 the full control effect; potency means the concentration at half of the fitted maximal effect; tags describe the fitted curve by direction and shape.

SMILES	Potency	activity change, negative = growth inhibition
COc1ccccc1N/C=C/c1onc(C)c1[N+](=O)[O-]	inconclusive [inhibitor, partial curve]	
O=C(c1ccc(-c2ccccc2)cc1)N1CCN(Cc2ccccn2)CC1	inconclusive [inhibitor, single point]	
CN(C(=O)CSc1nnc(Nc2ccccc2)s1)c1c(N)n(Cc2ccccc2)c(=O)[nH]c1=O	inconclusive [inhibitor, single point]	
Cc1c(C)c2c(c(C)c1OC(=O)CCC(=O)O)CC[C@@](C)(CCC[C@H](C)CCC[C@H](C)CCCC(C)C)O2	inconclusive [inhibitor, single point]	
CC1(C)Cc2cccc(OCC(=O)Nc3cc(C(F)(F)F)ccc3N3CCOCC3)c2O1	inconclusive [inhibitor, single point]	
CCOC(=O)[C@]12CCCC=C1N(Cc1ccc3c(c1)OCO3)C(=O)[C@H](CC(=O)NCCC(C)C)C2	inconclusive [inhibitor, single point]	
Nc1nc(SCC(=O)c2ccc(Oc3ccccc3)cc2)n[nH]1		inconclusive: -31.6% [inhibitor]
CC(=O)N(CCc1ccccc1)c1ccc2c(c1)C1CC2CCN1C(=O)OCc1ccccc1 (configuration not stated)	active: 6.51 µM	
C=CCn1c(O)c(C2=c3ccccc3=NC2=O)s/c1=N/c1nccs1	inconclusive [inhibitor, single point]	
CCCCOc1ccc(C2=NC(c3ccncc3)=Nc3ccc(Br)cc3N2)cc1	inconclusive [inhibitor, single point]	
CC(=O)c1ccc(N2CCN(C(=O)CNS(=O)(=O)c3ccc4c(c3)OCCCO4)CC2)c(F)c1	inconclusive [inhibitor, single point]	
Cc1cc(C(=O)COc2cc(F)ccc2[N+](=O)[O-])c(C)n1CC1CCCO1 (configuration not stated)	inconclusive [inhibitor, single point]	
COc1ccc(-c2nc(CS(=O)CC(=O)NCc3ccc(F)cc3)c(C)o2)cc1OC (configuration not stated)	inconclusive [inhibitor, single point]	
O=[N+]([O-])c1ccc(O)c(N=Cc2sc3ccccc3c2O)c1	active: 11.6 µM	
Cc1ccc(-c2nc3ccc(Cl)cn3c2Nc2ccc3c(c2)OCCO3)o1	active: 16.4 µM	
CCOCCCNC(=O)/C(C#N)=C/c1ccc([N+](=O)[O-])o1	active: 1.84 µM	
CCCc1cc(N2CCN(c3ccccn3)CC2)n2nc(C)c(-c3ccccc3)c2n1	inconclusive [inhibitor, single point]	
CCCC(=O)N(CC(=O)Nc1sc(C)c(C)c1C(N)=O)Cc1ccccc1	active: 6.51 µM	
CCCCc1cc(=O)oc2cc(OC3CCCCC3=O)ccc12 (configuration not stated)		inconclusive: -33.5% [inhibitor]
Cc1c(Cl)cccc1-n1ncc(C(=O)N2CCc3ccccc3C2)c1C1CCN(C(=O)OC(C)(C)C)CC1	active: 20.6 µM	
O=[N+]([O-])c1ccc(N2CCSCC2)cc1O	inconclusive [inhibitor, single point]	
Nc1c(C(=O)N2CCCCC2)sc(=S)n1-c1ccccc1	inconclusive [inhibitor, single point]	
CCN(CC)c1ccc(-c2nn3c(-c4n[nH]c5c4CCC5)nnc3s2)cc1	active: 0.651 µM	

SMILES	Potency	activity change, negative = growth inhibition
COc1ccc(CN(C)C[C@H]2OCCCC[C@H](C)Oc3ccc(NC(=O)CCC(F)(F)F)cc3C(=O)N([C@@H](C)CO)C[C@@H]2C)cc1	inconclusive [inhibitor, partial curve, poor fit]	
COc1ccc(C(=O)CSc2nccn2C)cc1		inactive: -13.7%
C=CCOc1ccc(C(=O)c2ccccc2)c(OCC(=O)NC2(C#N)CCCC2)c1	inconclusive [inhibitor, single point]	
CCOc1ccccc1N(CC)C(=O)Nc1cn(C)c(=O)c2ccccc12	inconclusive [inhibitor, single point]	
COc1ccc(CCNC(=O)CSCC(=O)Nc2cc(S(C)(=O)=O)ccc2Cl)cc1	active: 9.2 µM	
Cc1cccc(NC(=O)c2ncn3c2C(=O)N(C)CC3)c1	inconclusive [inhibitor, single point]	
COc1ccc(OCC(=O)Nc2ccc(C(=O)OCc3cc(=O)n4nc(C)sc4n3)cc2)cc1	active: 20.6 µM	
CCC(NC(=O)C(C)NC)C(=O)N1CCCC1C(=O)NC1CCCc2ccccc21 (configuration not stated)		inactive: 2%
Cc1ccc(Cn2nc(C)c(NC(=O)c3cc(-c4ccc5c(c4)OCO5)on3)c2C)cc1	inconclusive [inhibitor, single point]	
O=C(Nc1nc2ccccc2s1)C1c2ccccc2Oc2ccccc21	active: 16.4 µM	
Oc1cc2c(cc1O)CN(C(=S)NCCc1ccc(Cl)cc1)CCC2	active: 8.91 µM	
CN(C)S(=O)(=O)c1ccc(NC=O)cc1		inactive: -9.53%
O=S(=O)(c1ccc(C2CCCCC2)cc1)N1CCOCC1	inconclusive [inhibitor, single point]	
COc1cccc(-c2nc(NCc3ccccc3)c3ccccc3n2)c1O	inconclusive [inhibitor, partial curve, poor fit]	
COc1cc(Cl)c(C)cc1NC(=O)Cc1ccc(OC)c(OC)c1	active: 14.6 µM	
O=C(NCc1ccc(F)cc1)C1CCCN(S(=O)(=O)c2ccc(Br)s2)C1 (configuration not stated)	inconclusive [inhibitor, partial curve]	
O=C(CN(c1cccc(C(F)(F)F)c1)S(=O)(=O)c1ccc(Cl)c([N+](=O)[O-])c1)NCc1ccccc1	inconclusive [inhibitor, single point]	
COc1ccc(OC)c(NC(=O)CSc2nncc(=O)n2N)c1		inactive: 1.96%
Cc1ccc(/C=C/c2onc(C)c2S(=O)(=O)N2CCC(C(=O)N3CC(C)Oc4ccccc43)CC2)cc1 (configuration not stated)	active: 11.6 µM	
CCCCC(=O)Nc1ccc(NC(=O)c2ccccc2[N+](=O)[O-])cc1OC		inactive: -4.58%
CC1(C(=O)Nc2ccc3c(c2)OCO3)CCN1C(=O)C1CCCCC1 (configuration not stated)		inactive: -28.6%
CC(C)N(Cc1nc(-c2ccc(Cl)cc2)no1)Cc1nccn1C	active: 16.4 µM	
CC(=O)Oc1ccc(N(C(C)=O)S(=O)(=O)c2ccc(C)cc2C)c2ccccc12	inconclusive [inhibitor, single point]	

SMILES	Potency	activity change, negative = growth inhibition
C=C(Cl)COc1ccc2c(CCCC)cc(=O)oc2c1	inconclusive [inhibitor, partial curve, poor fit]	
O=C(NC(=S)N1CCOCC1)c1ccc([N+](=O)[O-])cc1		inactive: -12.6%
O=C(/C=C/c1ccc2c(c1)OCO2)c1cccs1	active: 5.96 µM	
Clc1ccc(-c2nc3cc(CN4CCCCC4)ccc3o2)cc1	inconclusive [inhibitor, single point]	
COc1ccc(NC(=O)C(NC(=O)CNC(C)=O)c2ccc(C)cc2)cc1 (configuration not stated)		inactive: 3.47%
CCc1ccc(NC(=O)CC2C(=O)N(c3cccc(OC)c3)C(=O)N2Cc2ccco2)cc1 (configuration not stated)	inconclusive [inhibitor, single point]	
Cc1ccc(S(=O)(=O)Nc2ccc3c(c2)C(=O)N([C@@H](C)CO)C[C@@H](C)[C@@H](CN(C)C(=O)NC(C)C)OCCCC[C@H](C)O3)cc1	inconclusive [inhibitor, single point]	
CCCCNCCCOc1cc(Cl)ccc1Cl	inconclusive [inhibitor, partial curve, poor fit]	
CCN(CC)c1ccc(C(=O)OCC(=O)NC(C)(C)C)cc1	inconclusive [inhibitor, single point]	
COc1ccc(N2CCN(C(=O)c3ccc(S(=O)(=O)N4CCOCC4)cc3)CC2)cc1	inconclusive [inhibitor, partial curve]	
Cc1ccc(NC(=O)c2oc3ccccc3c2NC(=O)Cc2cccs2)cc1	inconclusive [inhibitor, partial curve]	
COc1ccc(N(Cc2cc3ccccc3[nH]c2=O)S(=O)(=O)c2ccccc2)cc1	active: 18.4 µM	
Cc1cccc(COc2ccc(/C=C3/C(=O)N(C)C(=S)N3C)cc2)c1	inconclusive [inhibitor, single point]	
COc1ccccc1Nc1cc2cc(Br)ccc2c(=O)[nH]1	active: 5.17 µM	
COC(=O)C1C(O)C(C)C(O)C(C)(O)/C=C\C=C(/C)C(=O)Nc2c(C)c(OC(C)=O)c3c(c2O)C(=O)C(C)=C2OCOC(=C23)/C(C)=C/C(C)(O)C(O)C(C)C1O (configuration not stated)	inconclusive [inhibitor, partial curve, poor fit]	
CC1(C(=O)NS(=O)(=O)Cc2ccccc2C(F)(F)F)CCN1C(=O)Cc1ccsc1 (configuration not stated)	inconclusive [inhibitor, single point]	
CC(NC(=S)NC1CCCCC1)c1ccc(C(C)(C)C)cc1 (configuration not stated)	inconclusive [inhibitor, single point]	
COc1ccccc1NC(=O)N(C)C[C@H]1Oc2cc(Br)ccc2S(=O)(=O)N([C@H](C)CO)C[C@H]1C	inconclusive [inhibitor, single point]	
OCCN1CCN(c2nc(-c3ccccc3)c3cc(Cl)ccc3n2)CC1	active: 23.1 µM	
COC(=O)c1cc(NS(=O)(=O)c2ccc(NC(C)=O)cc2)cc(C(=O)OC)c1		inactive: 0.864%
COc1cccc(C2NC(c3cccc(OC)c3O)C(C)C(=O)C2C)c1O (configuration not stated)	inconclusive [inhibitor, single point]	
